Tests used:
[1] = target: T1, IL-2Rβ/IL-10Rβ heterodimer on cells (human, UniProt P14784 27-551; Q08334 20-325); test: cell-based or functional assay
T1 sequence (looked up) 1: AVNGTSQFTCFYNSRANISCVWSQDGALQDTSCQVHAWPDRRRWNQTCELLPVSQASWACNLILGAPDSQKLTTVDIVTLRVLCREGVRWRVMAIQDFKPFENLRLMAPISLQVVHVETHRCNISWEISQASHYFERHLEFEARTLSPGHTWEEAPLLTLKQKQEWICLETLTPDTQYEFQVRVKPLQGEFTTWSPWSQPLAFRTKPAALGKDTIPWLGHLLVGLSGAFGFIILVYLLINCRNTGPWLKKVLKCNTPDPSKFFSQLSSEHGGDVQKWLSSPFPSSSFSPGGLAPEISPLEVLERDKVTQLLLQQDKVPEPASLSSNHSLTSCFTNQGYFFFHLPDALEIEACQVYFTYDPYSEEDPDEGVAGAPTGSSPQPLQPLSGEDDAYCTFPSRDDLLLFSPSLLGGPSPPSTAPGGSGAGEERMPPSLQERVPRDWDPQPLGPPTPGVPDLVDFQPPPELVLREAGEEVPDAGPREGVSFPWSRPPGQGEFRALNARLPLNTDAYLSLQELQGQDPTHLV
T1 sequence (looked up) 2: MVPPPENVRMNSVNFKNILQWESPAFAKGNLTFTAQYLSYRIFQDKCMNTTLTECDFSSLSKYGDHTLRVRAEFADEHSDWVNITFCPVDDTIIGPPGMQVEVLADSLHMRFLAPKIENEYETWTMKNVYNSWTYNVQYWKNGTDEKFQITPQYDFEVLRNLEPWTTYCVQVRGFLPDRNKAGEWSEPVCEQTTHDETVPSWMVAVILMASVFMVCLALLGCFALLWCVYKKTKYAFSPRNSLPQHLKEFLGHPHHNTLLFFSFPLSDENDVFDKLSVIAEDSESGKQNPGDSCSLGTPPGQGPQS

Human γC ECD = target: T2, Human γC ECD (human, UniProt P31785 23-262, biotinylated (site not stated)); test: drawn table of affinities; the scFv value is derived from patent US20160367664A1 (Wang et al., 2016), not measured in this filing
T2 construct: extracellular domain; Biotinylated and held on a streptavidin chip for SPR; also called common gamma; biotinylated human γC ECD
T2 sequence (looked up): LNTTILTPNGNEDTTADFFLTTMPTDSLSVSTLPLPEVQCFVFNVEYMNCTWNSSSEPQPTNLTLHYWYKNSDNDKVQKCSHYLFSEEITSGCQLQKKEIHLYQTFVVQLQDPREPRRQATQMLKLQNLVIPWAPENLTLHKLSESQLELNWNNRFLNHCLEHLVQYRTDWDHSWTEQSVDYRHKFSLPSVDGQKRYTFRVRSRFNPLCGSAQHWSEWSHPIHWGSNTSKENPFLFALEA

B1: 10Rβ-VHH1 2Rβ-VHH6-Fc (0 a.a.) (Fc fusion)
chain: QVQLQESGGGSVQAGGSLRLSCAARYTYSTYCMGWFRQAPGKEREGVAAIDSDGSTSYADSVKGRFTISKDNAKNTLYLQMNSLKPEDTAMYYCASDADCDLGGSWSTRGQGTQVTVSSQVQLQESGGGSVQAGGSLRLSCAASSYTISSVCMGWFRQAPGKEREGVAGIAPDGSTGYGDSVKGRFTISKDNAKNTLYLQMNSLKPEDTAMYYCAAASPGRCFLPRTALEPALYYNWGQGTQVTVSS[skipping human IgG1 Fc]
pSTAT5 Emax in human primary T cells, relative to monomeric 10Rβ1-2Rβ6 [1]: > 2 fold

B2: γ scFv1 (P1A3) (scFv)
scFv (VH-linker-VL): QVQLQQWGAGLLKPSETLSLTCAVYGGSFSGYYWSWIRQPPGKGLEWIGEINHSGSTNYNPSLKSRATISVDTSKNQFSLKLSSVTAADTAVYYCATSPGGYSGGYFQHWGQGTLVTVSSGGGGSGGGGSGGGGS[skipping about 100 residues]YCMQGTHWPWTFGQGTKVEIK
notes: also called γc-scFv1 (P1A3)
Kd (Human γC ECD): 145 nM
